Measurements from PubChem BioAssay AID504845 (National Center for Advancing Translational Sciences (NCATS), 2011).
“And” between values parts separate entries of the source, which are not always exact repeats. Identical values can stand only once. The whole screen tested about 390,000 compounds, of which about 150 (0.038%) were called active. The inconclusive results got no clear call from the source; some entries with a clear call stand among them for comparison. Calls come from the whole dose curve; as a rule, active = well fitted inhibition curve with a large enough effect; inconclusive = small, poorly fitted or top-dose-only effect; inactive = no such curve, though single readings can be large or run the other way. A potency beside an inconclusive call is a rough fit, not a confirmed value. More than one record can exist for a structure, and the calls need not agree.

target: Regulator of G-protein signaling 4 (Homo sapiens) (UniProt P49798); test: Inhibitors of Regulator of G Protein Signaling (RGS) 4: qHTS; details: Transcreener GDP fluorescence polarization, RGS4-accelerated GTP hydrolysis; series mostly up to 114 µM; note: nearly all actives have a fitted effect of over 75% in size
In short: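 MLSMR compounds (23 nl, pin-transferred) preincubated 10 min at room temperature with a 500nM (2x) first reagent, then RGS4 at 900nM (2x) plus Transcreener GDP mix added; fluorescence polarization (620/688 nm) read before and after 90 min at 30 °C.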
Potency is the fitted concentration of half-maximal effect; tags give direction and shape of the fitted curve.

UniProt P49798, sequence (P49798 whole entry, looked up): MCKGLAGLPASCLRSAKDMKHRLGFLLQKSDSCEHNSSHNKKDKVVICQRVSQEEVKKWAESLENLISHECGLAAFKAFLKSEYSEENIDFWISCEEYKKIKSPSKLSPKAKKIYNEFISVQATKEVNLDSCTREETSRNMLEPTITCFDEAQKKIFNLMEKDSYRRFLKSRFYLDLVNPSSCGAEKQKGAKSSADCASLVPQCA

| Structure (SMILES) | Potency |
| --- | --- |
| CC1=C(C(=O)O)N2C(=O)C(NC(=O)c3ccc(F)cc3)C2SC1 (configuration not stated) | inconclusive: 79.4 µM [inhibitor, partial curve, poor fit] |
| O=C1C=CC(=O)N1N(c1ccccc1)c1ccccc1 | inconclusive: 44.7 µM [inhibitor, partial curve, poor fit] |
| C[C@H](NC(=O)c1[nH]cnc1C(=O)Nc1ccc(CNC(=O)OC(C)(C)C)cc1)C(=O)OC(C)(C)C | inconclusive: 50.1 µM [inhibitor, partial curve, poor fit] |
| CN(C)c1nc(-c2ccccc2)nnc1C(F)(F)F | inactive |
| COc1ccc(S(=O)(=O)NCCc2sc(-c3ccccc3)nc2C)cc1OC | inactive |
| N#Cc1c(SCC(=O)Nc2nc3ccccc3s2)sc2c(O)cc(=O)[nH]c12 | inconclusive: 39.8 µM [inhibitor, partial curve, poor fit] |
| COc1cccc(NC(=O)Cn2c(=O)n(Cc3nc(-c4ccccc4)no3)c(=O)c3ccccc32)c1 | inactive |
| O=C(CC1(O)C(=O)N(Cc2ccccc2)c2ccccc21)c1ccncc1 (configuration not stated) | inactive |
| O=C(CCNS(=O)(=O)c1cccc2nsnc12)Nc1ccc(F)cc1 | inactive |
| CCS(=O)(=O)c1ccc2oc(Nc3ccc(C(C)C)cc3)nc2c1 | inconclusive: 100 µM [inhibitor, partial curve, poor fit] |
| CCCCN(c1ccccc1)S(=O)(=O)c1cccc(C(=O)Nc2c(C)n(C)n(-c3ccccc3)c2=O)c1 | inconclusive: 100 µM [inhibitor, single point] |
| CCC(=O)NCCc1sc2nc(-c3ccc(OC)cc3)nn2c1C | inactive |
| C/C(=N/Nc1nc(-c2ccccc2)c(CC(=O)O)s1)c1ccccc1 | inconclusive: 79.4 µM [inhibitor, partial curve, poor fit] |
| O=C(/C=C/c1ccncc1)c1ccc(NC(=O)c2ccccc2F)cc1 | inconclusive: 31.6 µM [inhibitor, full curve, poor fit] |
| CN(Cc1ccccc1)C(=O)c1ccc(CSc2nc3cccnc3n2Cc2ccccc2)cc1 | inactive |
| CCOC(=O)c1c(NC(=O)C2C3C=CC(C3)C2C(=O)O)sc2c1CC(C)(C)OC2 (configuration not stated) | inconclusive: 89.1 µM [inhibitor, single point] |
| COc1ccc(O)c(/C=N/NC(=S)Nc2cccc(S(=O)(=O)N(C)C)c2)c1 | inconclusive: 79.4 µM [inhibitor, partial curve, poor fit] |
| S=C(c1ccc(-c2cccc(Cl)c2)o1)N1CCOCC1 | inconclusive: 31.6 µM [inhibitor, partial curve, poor fit] |
| CN(C)/C=C(/C(=O)c1ccccc1Cl)S(C)(=O)=O | inconclusive: 70.8 µM [inhibitor, single point] |
| C=CCn1c(=NC(=O)c2ccc(S(=O)(=O)N3CCCC3)cc2)sc2cc(NC(C)=O)ccc21 | inconclusive: 50.1 µM [inhibitor, partial curve, poor fit] |
| CC(C)(C)c1cc(C(=O)N/N=C/c2cc3c(cc2Br)OCO3)n[nH]1 | inactive |

| Structure (SMILES) | Potency |
| --- | --- |
| Cc1ccc(C2C(C#N)=C(N)SC(N)=C2C#N)c(C)c1 | inactive |
| Brc1ccc(C2Nc3cccc4cccc(c34)N2)o1 | inactive |
| COCc1[nH]c(=S)c(C#N)cc1C(=O)OC | inconclusive: 31.6 µM [inhibitor, partial curve, poor fit] |
| NC(=S)NCCC[C@H](N)C(=O)O | inactive and active: 10.6 µM |
| COc1ccc(C2=CC(=O)CC(C)(C)C2)cc1 | inactive |
| COc1ccccc1Nc1nc(-c2sc(NC(=O)c3ccccc3)nc2C)cs1 | inconclusive: 20 µM [inhibitor, full curve, poor fit] |
| Cc1ccc(-c2csc(NS(=O)(=O)c3cccc(F)c3)n2)o1 | inconclusive: 17.8 µM [inhibitor, full curve, poor fit] |
| COc1ccccc1C(=O)NC(=O)Nc1ccc(-c2cc(C(F)(F)F)nn2-c2ccccc2)cc1 | inactive |
| COc1cccc(C2CC(c3ccc(Cl)cc3)n3nc(N)nc3N2)c1 (configuration not stated) | inconclusive: 70.8 µM [inhibitor, partial curve, poor fit] |
| CCc1ccc(NC(=S)Nn2cnnc2)cc1 | inconclusive: 25.1 µM [inhibitor, full curve, poor fit] |
| CCOC(=O)N1CCC(c2cc(=O)n(-c3ccccc3)[nH]2)CC1 | inconclusive: 89.1 µM [inhibitor, partial curve, poor fit] |
| COc1ccccc1NC(=O)c1cc2cc3ccc(OC)c(Cl)c3nc2s1 | inconclusive: 28.2 µM [inhibitor, full curve, poor fit] |
| CCC(C)C(NC(=O)/C(=C\c1ccccc1)NC(=O)c1ccc(OC)cc1)C(=O)O (configuration not stated) | inconclusive: 89.1 µM [inhibitor, single point] |
| O=C(N/N=C/c1ccc(N2CCCCC2)o1)c1ccccc1[N+](=O)[O-] | inconclusive: 44.7 µM [inhibitor, partial curve, poor fit] |
| COc1ccc(OC)c(-n2c(-c3cc(-c4ccccc4)n[nH]3)n[nH]c2=S)c1 | inconclusive: 100 µM [inhibitor, partial curve, poor fit] |
| O=C(CCc1ccc(S(=O)(=O)NC2CCCCC2)cc1)NCc1ccc(Cl)cc1 | inconclusive: 89.1 µM [inhibitor, single point] |
| CC[N+](CC)(CC)CCOc1ccc(/C=C/c2ccccc2)cc1 | inconclusive: 37.7 µM [inhibitor, partial curve, poor fit] |
| CCOc1cc(/C=C2\C(=O)N(c3nc(-c4ccc(Br)cc4)cs3)N=C2c2ccccc2)ccc1O | inconclusive: 56.2 µM [inhibitor, partial curve, poor fit] |
| Cc1c(NS(=O)(=O)c2ccc3c(c2)OCCO3)cccc1-c1nc2cccnc2s1 | inactive |
| CCCc1nnc(NC(=O)CCC(=O)O)s1 | inactive |
| S=c1nc(-c2cc(Cl)ccc2Cl)[nH][nH]1 | inconclusive: 44.7 µM [inhibitor, partial curve, poor fit] |
